# From the supplement of paper PMC11417369
# The list shows a part of the results.
# Test system: PF3D7_0420300 AP2 domain 1 (GST-tagged)
# Experiment: gcPBM binding intensity (ln(normalized median fluorescence intensity)); higher = stronger DNA binding
# In short: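 Binding intensity values are the highest Masliner-normalised natural-log median intensity among replicate spots of either probe orientation. The binding step lasted 1 h in 1× PBS with 1% milk, 0.2 mg/ml BSA, 0.5% salmon testes DNA and 0.03% Triton X-100, using GST-tagged P. falciparum DNA-binding domains expressed in E. coli on an Agilent 4 × 180k array of primer-extended double-stranded 36-bp intergenic genomic probes plus negative controls. Alexa488 anti-GST antibody and a 488 nm scan detected bound protein.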
row,Sequence,gcPBM binding intensity (ln)
1,AACCATTTTAAATATGCACACAGATGCACTAACACA [CACACA_site8565],9.46
2,GAATTATATAATTAAAGTACATTGTTTATATAATCA [XGTACX_site7246],9.05
3,GAAAGAAATAAAGGTGGTACATAAATAAAAACTAAG [XGTACX_site4826],9.36
4,AAATTCCACGGACACACACACATATAAATAAATAAA [CACACA_site4811],9.98
5,TGTAGTCTGGAGAAAAGTACATAGTATCTGGTAGCT [XGTACX_site2031],9.32
6,TTTACACGTACGTGTACACACAAAAATATGTTTTTA [CACACA_site995],9.3
7,ATTTATATGGTTTGCACACATAACAACTATGGTTAT [CACACA_site3632],9.65
8,AACATAAAAAAAATATGTACATATATAATATATATA [XGTACX_site3764],9.29
9,AAAAATAAAAAAAGCACACACATATAAATAAATATA [CACACA_site6968],9.82
10,TAATTTTTCTTTTATTAACACACATATAAATAAATA [CACACA_site8935],9.2
11,CCCAATAATTAAACAACACACATATTTATAGGTAAT [CACACA_site7445],9.7
12,TATATGACAAGATAAAGTACAAATTTGTATATATAT [XGTACX_site3027],9.47
13,ATATATTTATATATTACACACAATATTGTAGACATA [CACACA_site4669],9.51
14,ATATATATACTGTGTACACAAATATATATTATATAT [CACACA_site6104],9.35
15,AAATTTGGATGACTCAATAAATTATAATATATATAT [CACACA_negctrl_site298],9.03
16,ATATTCTTTATATGCATACACACCTAATATAGGGAC [CACACA_site1533],9.4
17,TTCAATTTTTTAAAGCGTACATATAAAAGTTATATG [XGTACX_site731],9.03
18,AATCATTTGTTATAAGTCTAAAATTATTAGAATATT [XGTACX_negctrl_site151],9.05
19,ATTATTACATATAATGCATGTGCATATATTTTTATA [TGCATGCA_site701],9.28
20,AAAAAAAATTTCTCAAGTACACAATTTTTTTTTGTT [XGTACX_site5874],8.95
21,TTTTTTTAAATATATAAGATAAATTTATAAATAAAT [XGTACX_negctrl_site282],8.63
22,TTATAATAAAAAAATTCCTAAGTCCGTATATATTAT [CACACA_negctrl_site1698],9.02

row,Sequence,gcPBM binding intensity (ln)
1,TTTTATTTTTATAACAGTACATAAGTAATTGTTCAA [XGTACX_site7574],8.92
2,TTTTATCATCACATTTGTCAAAAAAAAAAAAAAAAA [CACACA_negctrl_site1296],8.52
3,ATATCAAACTAGAATGTGCGCATGCATTCAAGTTTT,9.07
4,TTATGTTCATTATATGCACACATATATATAAATGTA [CACACA_site8947],9.24
5,GATTTTATAATTTCTACACACATATAAGAATATTCA [CACACA_site2802],9.5
6,ATATATTTATATTTGTGTACATATTTATTATATTTA [XGTACX_site404],9.36
7,ATTTGTGACCACACAAATAAATAAATAAAAAAAAAA [TGCATGCA_negctrl_site328],9.03
8,AATATGAATATCTATACACACACATATATATACACA [CACACA_site8459],9.87
9,TAATAATAGAAACACACACACATTTTTAATAATACA [CACACA_site1216],10.1
10,GGTATACATAATACTTGTACTAGGCAACAATAAGAT [XGTACX_site1437],9.59
11,AAGAAGAAAAACCATTGTACGAACTAACATATATAA [XGTACX_site3226],9.59
12,TGTTAAAAGAAAAAAAGTACAAAAAATTATACATTT [XGTACX_site467],9.17
13,TATATTTTATATTAGTGTACAAATTTCATTTTTCAT [XGTACX_site2204],9.13
14,AATATATATAAAAAAGTGCATTAGGATAACCATATA [GTGCAC_site9590],9.63
15,TATATATATATATTCACACATATAGTATTGTATTTA [CACACA_site5147],9.32
16,TCGCAAATAAATTAATGTACACATATATATATATAT [XGTACX_site5145],9.2
17,TATTGATAATTTTATATATACATACATAAATAAATA [CACACA_negctrl_site1687],8.93
18,TTTTCAATTTTTTATGAACACACAAAAAAAAAAAAA [CACACA_site8808],8.77
19,AGTTTCTATTTAGTGTGTACTTAAGAAAAATATCTC [XGTACX_site82],9.19
20,AAATGTATATATGTATGTACATATATATATATATAT [XGTACX_site5778],9.16
21,ATAAACTGAGTGGTTACACACAAAACCAATAATTTT [CACACA_site3478],9.61
22,ATATATATATATATATGTACTCATATTTTATTATTT [XGTACX_site898],9

row,Sequence,gcPBM binding intensity (ln)
1,TAAAAAAAAACAGAAACACACATTATTCATATAGAT [CACACA_site7052],9.78
2,AAAAGCACCGTTCGTTGTACACTGAAACACTTTTGT [XGTACX_site199],9.28
3,GTTATAAATTTTTTTTTTTTTTTTTTTTTTTTTTTT [CACACA_negctrl_site848],9.27
4,ATAAAATAAAAGGAATGTACTTTTTTTATTGTAATT [XGTACX_site4372],9.14
5,AACAAATACGGACACACACACACACTAGAAAAAAAA [CACACA_site4442],10.2
6,AACAAATTGAAACAATAATTGGAAAAAAAAAAAAAA [CACACA_negctrl_site1145],9.06
7,ACTAATGTAAAAGTTTGTACATATATTGAGAATTAT [XGTACX_site7439],9.2
8,ATTTTTTTCCACTAGTGTACAAATTTTACATTGTGT [XGTACX_site5023],9.47
9,CTATAATATTAGTGCACACACAAAAATGTACTAAAC [CACACA_site6442],9.67
10,AAGAAAAAAACAAAAAAAAAAAAAAAAATTCTTATT [TGCATGCA_negctrl_site504],9.12
11,AATAATAATAAAAATAAACACACATATATATGTATA [CACACA_site8928],9.49
12,ATTTCTTTTGTTATAGTGCATAATATTTATGTACGT,9.31
13,AAAGAAAGAAAGAAAAGTACTTAAACTTTTAAAAAT [XGTACX_site8531],9.19
14,ATATTAATATATAGAAGTACTCACATGTTAATATAA [XGTACX_site7323],9.3
15,TAACTATCATGTATTACACACAATATTTATTATATA [CACACA_site2701],9.52
16,TTAAATAAATAAATAACACACATATAAAAATAACGC [CACACA_site3266],9.67
17,TATTCAAATTTCCACATACACACCTTGTAGATATAT [CACACA_site281],9.35
18,AAGAAAAAAAGCAACACACGTACCAACACAATTATG [CACACA_site3133],9.9
19,AAGACAAATTTTACATGTACAAATATATTACATATA [XGTACX_site7060],9.12
20,GTAGACTGAAACCACACACACATATATATATATATT [CACACA_site605],9.8
21,TAATATTTCGCACTGTGTACTGAAATATTTATATCG [XGTACX_site516],9.13
22,ATAATAAGACGATAAGGTACACAAAATGTTAATATA [XGTACX_site6984],9.5

row,Sequence,gcPBM binding intensity (ln)
1,TAAAGCGACATTTGGAAAATATATATCCTAGCATTT [CACACA_negctrl_site327],9.16
2,TATTCGTGCAATAGTAGTACACTTAAAAATTATTCA [XGTACX_site269],8.99
3,ATTCGTTATAAAATATGTACATAAATATATATATAT [XGTACX_site2819],9.23
4,AAAATACACAGACACACACACATATAAATAAATATT [CACACA_site7871],10.1
5,TTATAAAATAAACTTACACACATGAAATATTATATT [CACACA_site1945],9.49
6,ACATAGATGCATATCACACATAATAATATTGTCGTA [CACACA_site4819],9.28
7,AAACAAAATAAATATGAACACACACCGTTATGCCTT [CACACA_site8347],9.88
8,TATTTGTGGATTTTTACACACATTAATATATATATA [CACACA_site3375],9.35
9,AGGAAAATTATGAATGGTACAGAATATATTAGGAGA [XGTACX_site6282],9.44
10,GCACTAAAAAAATAAACACACAGATTTATATAATAT [CACACA_site1381],9.51
11,AATAAGTTATTATTTTGTACACATAAATAATACGTT [XGTACX_site814],9.26
12,AAGGAACTATAATATACACACATAAGTGTACTTATA [CACACA_site7816],9.41
13,ATATATGCATATATTTGTACACATTTTTTTACATAA [XGTACX_site4624],9.38
14,AAAAAAACGTAAAAATGTACTTTTTGTATATAACCT [XGTACX_site7950],9.19
15,CGTAATAAAAACAAATGTACATGACCTGGACAGGTT [XGTACX_site6560],9.5
16,GTATATTTTTAAAGGTGTACTTTTTTTTTTTTTTTT [XGTACX_site721],9.26
17,ATATAAAACTATAATACACACATAAAATATATTATA [CACACA_site6588],9.73
18,TATATTTATTTATTCTGTACTGAAGACAGTTATGTA [XGTACX_site8857],8.98
19,TATATAATACAACATGCACACATATATATGTGAATC [CACACA_site8794],9.62
20,ATAAATATATATATAGTGCATATAAGCCACCTTCAA [GTGCAC_site9628],9.28
21,TACTAATATGATATATAAATATTGTTATATAATAAT [XGTACX_negctrl_site227],9.12
22,TGAATACAAATTTACGCATGTAATTTCCAGAGGGAG [TGCATGCA_site769],9
